# Results: the supplement of paper PMC3334620
# The full ranking holds about 33,000 sequences; the median of “E-score (-0.5 to 0.5)” is about -0.012, and the highest 2% start at about 0.29. Some of the results follow.
# Target: T1, Ybr033w (UniProt P38073)
# T1 sequence: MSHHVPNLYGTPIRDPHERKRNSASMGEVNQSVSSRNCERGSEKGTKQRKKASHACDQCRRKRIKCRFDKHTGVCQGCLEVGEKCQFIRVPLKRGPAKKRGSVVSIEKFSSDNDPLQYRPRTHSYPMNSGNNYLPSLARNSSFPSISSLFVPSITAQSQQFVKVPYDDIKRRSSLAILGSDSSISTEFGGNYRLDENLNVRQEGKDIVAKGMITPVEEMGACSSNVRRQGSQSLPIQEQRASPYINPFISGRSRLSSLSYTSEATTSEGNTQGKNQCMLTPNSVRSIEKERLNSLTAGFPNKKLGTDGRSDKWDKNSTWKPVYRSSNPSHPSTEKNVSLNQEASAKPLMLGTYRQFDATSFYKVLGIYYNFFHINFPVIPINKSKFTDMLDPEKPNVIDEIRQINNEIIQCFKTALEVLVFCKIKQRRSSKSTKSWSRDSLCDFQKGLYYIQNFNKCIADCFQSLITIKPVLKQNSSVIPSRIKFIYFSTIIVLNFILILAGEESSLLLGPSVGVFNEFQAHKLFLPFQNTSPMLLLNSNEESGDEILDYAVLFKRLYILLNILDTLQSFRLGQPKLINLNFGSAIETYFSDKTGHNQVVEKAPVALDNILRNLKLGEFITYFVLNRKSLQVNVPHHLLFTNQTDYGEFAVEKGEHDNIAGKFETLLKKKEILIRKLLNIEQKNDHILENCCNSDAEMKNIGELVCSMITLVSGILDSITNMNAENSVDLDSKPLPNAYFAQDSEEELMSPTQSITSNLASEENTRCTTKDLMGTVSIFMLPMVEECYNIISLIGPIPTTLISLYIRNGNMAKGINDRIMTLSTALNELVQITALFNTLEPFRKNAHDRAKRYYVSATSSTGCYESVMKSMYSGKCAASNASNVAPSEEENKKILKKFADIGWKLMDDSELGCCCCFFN
# Experiment: PBM E-score (8-mer binding enrichment) (E-score (-0.5 to 0.5)); higher = stronger / more preferred TF binding; most listed sequences are background and not binding sites
# Settings: protein concentration: 200 nM; construct: GST-full length
# Method in brief: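 GST-tagged yeast TFs (full-length or DNA-binding domain) were made by PURExpress in vitro transcription/translation and applied at about 100-200 nM to universal all-10-mer Agilent arrays. The arrays were made double-stranded by primer extension, on fresh or once-stripped slides. Bound protein was detected with fluorescent anti-GST, and scans were normalised with masliner. Each ungapped eight-base word, pooled with its reverse complement, received an E-score (modified Wilcoxon-Mann-Whitney statistic) from the Universal PBM Analysis Suite.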
row,Sequence,PBM E-score
1,GAATTGAC,0.00537
2,CTCCACGA,-0.0474
3,CACCGGTG,-0.255
4,CGACGGAG,-0.019
5,ATTGATGG,0.213
6,CCGTTCAC,-0.112
7,GAAGGTCA,0.0288
8,CCTACGAA,0.0282
9,ACCTCCTC,-0.169
10,CCGAAAGA,0.0944
11,CTTGTGTA,0.131
12,CCCTTCTC,-0.337
13,GAATCTCC,-0.151
14,CGCATCGC,-0.165
15,ATCCTCCG,-0.173
16,CGACACTC,0.00696
17,GACAATAA,0.186
18,CTAGTAAC,0.0169
19,CAGCGCGG,-0.00239
20,ATCGTCGC,0.0195
21,ACGTACTA,0.217
22,CGATTCTC,-0.0452
23,GAGGGGAA,-0.0397
24,CCTACTCC,-0.0891
25,GACCCGCA,-0.187

row,Sequence,PBM E-score
1,GCGCTCCA,-0.315
2,GGACTTGA,-0.154
3,ACGGGCCC,-0.344
4,CGGACGAA,0.127
5,ATTAAACC,0.187
6,ATTCTTGG,0.098
7,ATCAATGA,0.267
8,AGACCCCT,-0.323
9,GGCCCACC,-0.307
10,CTGAGGTA,-0.0539
11,CACTAAGG,-0.203
12,ACACATAT,0.132
13,GCGTGATA,-0.0494
14,CAATGACC,-0.0669
15,AATAGCCG,-0.0639
16,CATTGTTC,0.31
17,GCTATTGA,0.0859
18,AAAGTGCC,-0.219
19,CACGGATA,0.147
20,ACAGTGCA,0.0582
21,ACTTCATA,0.0836
22,CGAGTTTA,0.00605
23,AACTTTGC,0.0862
24,GTTGCTTA,0.116
25,AACATCCG,0.12

row,Sequence,PBM E-score
1,GCGTGTTA,-0.0178
2,CCCTAACG,-0.0121
3,AAACCGAA,0.0764
4,CCAAATTA,0.269
5,CCACTTTA,0.225
6,CCTACACA,0.0171
7,ACCCATCG,-0.0756
8,ACCATCCG,0.0385
9,ACTTTGCG,-0.0328
10,ATGAGCAG,-0.00353
11,TCAGCTGA,0.203
12,ATGCCGGG,-0.191
13,CGGATGAG,-0.0297
14,AGACAACG,-0.115
15,ACGGTAGA,-0.0598
16,AATTATAC,0.284
17,AAAAGAGA,0.00246
18,CTAAGGCC,-0.193
19,CATGTAAG,-0.0133
20,GCCTCGCA,-0.0398
21,AATCCACT,0.193
22,CCGAGGAA,0.054
23,ACGTGTCT,-0.167
24,AGGATTGG,-0.103
25,CCCAACCG,-0.169

row,Sequence,PBM E-score
1,CACAAGTA,0.0476
2,AGAAGCAA,0.134
3,AGAGATCG,-0.0064
4,AACCGCTC,-0.127
5,ACTTTTGA,0.105
6,ACCATCGC,-0.0324
7,ACAATACG,0.149
8,ACACACTG,-0.092
9,CGACTTCA,0.0259
10,CCAGAGTA,-0.0169
11,CTGCCAGC,-0.0939
12,ACTGCAAG,-0.0597
13,GGAGAGTA,-0.0818
14,CACTTATA,0.176
15,TCTTAGAA,0.254
16,GTGTAAAA,0.112
17,ATTTTAAA,0.248
18,ATGCGGGA,0.0928
19,CTCCTATC,-0.0727
20,AAGTAGGT,-0.13
21,GGTATTGA,0.0704
22,AATACACT,0.18
23,GCCTTTAC,-0.0171
24,GGTCTATA,0.00227
25,AGTGGGCC,-0.405

row,Sequence,PBM E-score
1,GTTGGGCA,-0.0726
2,CTTGCCAC,-0.0894
3,AGTGCTTA,-0.00926
4,ACAAATAG,0.167
5,CCCGTTTA,0.149
6,CACCCCAA,-0.0395
7,CCAGGCAG,-0.203
8,CCCTGCCA,-0.191
9,AAATCGTT,0.148
10,CAGTCAGA,-0.125
11,CCGTATAA,0.151
12,ACAGAGCT,-0.153
13,CCGGGGGC,-0.414
14,GACTATAC,-0.0185
15,ACGTTTTA,0.149
16,TACCTTAA,-0.0152
17,ACAGAGTA,0.0826
18,GGGTACCA,-0.307
19,ATCGCCTA,-0.0686
20,ATCCAGAA,0.197
21,GAGAAATA,0.265
22,AATAAGGC,0.0806
23,ATTAAGAA,0.0816
24,GCATTAGC,-0.0425
25,CGGTCGAA,-0.0905

row,Sequence,PBM E-score
1,ATTCTCCC,0.14
2,GGACCTCC,-0.353
3,CAGTCTGA,-0.112
4,CCATTCCG,-0.0635
5,ATGTTCTG,0.114
6,TCAAACAA,0.187
7,CTTTGAAC,-0.136
8,AAGTCAAG,-0.173
9,CGGATTGC,0.0199
10,AGCGCAAC,0.0558
11,CACTTCAC,0.0793
12,AGAGTTTA,0.235
13,CACGTCCG,-0.213
14,AGTGACGA,0.0162
15,AGAGACAT,0.101
16,CGGACGGA,-0.25
17,GGGGTTAA,-0.149
18,ATGTTCCG,0.458
19,AACCGGAT,0.254
20,CCCGCACC,-0.137
21,ACAATTAG,0.0047
22,GATCATCC,0.268
23,GGTAAGAC,-0.031
24,CTCAAATA,0.0996
25,CTGATTTA,0.156

row,Sequence,PBM E-score
1,AGCTGGAT,0.00667
2,CTTATACA,0.0352
3,ACAAGGCC,-0.151
4,GACACTGA,0.0182
5,CCTTGAAC,-0.0759
6,AAACTGGT,0.0445
7,ACCAATCC,-0.0137
8,GTAGCACA,-0.0634
9,GAGTGTAC,-0.0792
10,ATTCAAGG,-0.0509
11,AACTGAGA,0.0375
12,GATGATAA,0.167
13,CACAAGCA,0.0199
14,GGGCAACA,-0.113
15,ACCAGCGT,-0.25
16,CCCAATCG,-0.175
17,ATCATGGG,-0.179
18,AGCGTACA,-0.2
19,AGAAGTTA,0.0709
20,CCCCCGAG,-0.378
21,AGGCCCGG,-0.364
22,AAGGGCCC,-0.291
